Test results taken from the supplement of paper PMC6206098.
± gives the uncertainty stated by the source. The sequences are guide strands of siRNAs; only the seed at positions 2 to 7 varies.

Tests used:
M565 = experiment: cell viability relative to lipid-only control; higher = less toxic; details: concentration: 10 nM; 96 h; Mus musculus
Method: (§1)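 Arrayed screen of 4096 siRNA duplexes, each carrying one of all possible 6mer seeds at guide-strand positions 2-7 in a fixed neutral 19mer scaffold (constant flanks: U at position 1, then ACAUGUAAACCA, plus a 3' AA overhang). The passenger strand is 2'-O-methylated at positions 1-2 so only the guide strand loads into RISC. Duplexes were reverse-transfected at 10 nM with RNAiMAX in triplicate in 384-well plates; viability was read by CellTiter-Glo ATP content 96 h after transfection. Values are % viability normalised to lipid-only wells (HeyA8, H460, M565) or to siNT1 (3LL).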

HeyA8 = experiment: as above; details: concentration: 10 nM; 96 h; Homo sapiens
Method: as §1

H460 = experiment: as above; details: concentration: 10 nM; 96 h; Homo sapiens
Method: as §1

3LL = experiment: cell viability relative to siNT1 control; HeyA8 human ovarian and H460 human lung cancer; M565 mouse liver and 3LL mouse lung cancer; siNT1 is a non-toxic control siRNA; higher = less toxic; details: concentration: 10 nM; 96 h; Mus musculus
Method: as §1
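For cell viability relative to lipid-only control in this document: reverse lipid transfection in 384-well plates, in triplicate, of duplexes on a non-toxic 19mer backbone with passenger strand 2′-O-methylated at positions 1 and 2, luminescence viability read-out.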
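For cell viability relative to siNT1 control in this document: Luminescence-based viability of cells reverse transfected in 384-well plates with lipid-complexed siRNAs built on a non-toxic 19mer backbone whose passenger strand carries 2′-O-methyl groups at positions 1 and 2, triplicates.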

Sequence UAUUCCCACAUGUAAACCAAA has a cell viability (M565) of 27.6 ± 1.2%, a cell viability (HeyA8) of 50.3 ± 1.6% and a cell viability (H460) of 64.4 ± 7.7%. For the same sequence, the cell viability (3LL) was 22.3 ± 5.7%.
In the case of UAGCGUAACAUGUAAACCAAA, the cell viability (M565) is reported as 66.2 ± 8%, the cell viability (HeyA8) is reported as 77.7 ± 12% and the cell viability (H460) is reported as 63.8 ± 3.3%. For the same sequence, the cell viability (3LL) was 86.9 ± 17%.
For UUACAUGACAUGUAAACCAAA, the cell viability (M565) was 106 ± 15%, the cell viability (HeyA8) was 83.8 ± 8.4% and the cell viability (H460) was 72 ± 4%. It also gave a cell viability (3LL) of 108 ± 9.8%.
With UAUGAAUACAUGUAAACCAAA the cell viability (M565) was 98.7 ± 5.5%, the cell viability (HeyA8) was 98.2 ± 4.5% and the cell viability (H460) was 79 ± 6.3%. It also gave a cell viability (3LL) of 107 ± 11%.
Work on UGCUGGGACAUGUAAACCAAA yielded a cell viability (M565) of 6.46 ± 6.5%, a cell viability (HeyA8) of 3.77 ± 0.95% and a cell viability (H460) of 12.1 ± 1.2%. It also gave a cell viability (3LL) of 9.51 ± 3.1%.
For UGUAAGGACAUGUAAACCAAA, the cell viability (M565) was 43.1 ± 4.5%, the cell viability (HeyA8) was 46.7 ± 3.3% and the cell viability (H460) was 46.9 ± 2.7%. The cell viability (3LL) was 87.3 ± 2.9%.
UGGCUGAACAUGUAAACCAAA was tested, and the cell viability (M565) was 23 ± 3.3%, the cell viability (HeyA8) was 23.1 ± 2.1% and the cell viability (H460) was 37.8 ± 6.2%. For the same sequence, the cell viability (3LL) was 27.5 ± 5%.
In the case of UGUUGUUACAUGUAAACCAAA, the cell viability (M565) is reported as 33.9 ± 5.7%, the cell viability (HeyA8) is reported as 9.56 ± 2% and the cell viability (H460) is reported as 69.5 ± 8.8%. For the same sequence, the cell viability (3LL) was 70.1 ± 16%.
In the case of UCGGUGAACAUGUAAACCAAA, the cell viability (M565) is reported as 56.3 ± 8%, the cell viability (HeyA8) is reported as 81.6 ± 4.4% and the cell viability (H460) is reported as 58.3 ± 3%. It also gave a cell viability (3LL) of 92.4 ± 12%.
UGGCCGUACAUGUAAACCAAA was tested, and the cell viability (M565) was 7.15 ± 5.8%, the cell viability (HeyA8) was 7.4 ± 0.44% and the cell viability (H460) was 28.1 ± 3.7%. For the same sequence, the cell viability (3LL) was 36 ± 1.5%.
In the case of UCCGAACACAUGUAAACCAAA, the cell viability (M565) is reported as 75 ± 11%, the cell viability (HeyA8) is reported as 70 ± 2.4% and the cell viability (H460) is reported as 70.5 ± 4.4%. For the same sequence, the cell viability (3LL) was 97.9 ± 15%.
Sequence UAUGGGCACAUGUAAACCAAA has a cell viability (M565) of 13.2 ± 3.1%, a cell viability (HeyA8) of 36 ± 8.4% and a cell viability (H460) of 31.2 ± 3.2%. For the same sequence, the cell viability (3LL) was 40.5 ± 4.7%.
For UUCUUUCACAUGUAAACCAAA, the cell viability (M565) was 105 ± 26%, the cell viability (HeyA8) was 48.5 ± 14% and the cell viability (H460) was 53.7 ± 3.4%. For the same sequence, the cell viability (3LL) was 63.1 ± 6.9%.
UAUGGUGACAUGUAAACCAAA was tested, and the cell viability (M565) was 87 ± 11%, the cell viability (HeyA8) was 93.9 ± 9.2% and the cell viability (H460) was 88 ± 8.9%. It also gave a cell viability (3LL) of 95 ± 6.9%.
Work on UAUAGGCACAUGUAAACCAAA yielded a cell viability (M565) of 21.3 ± 6.8%, a cell viability (HeyA8) of 24.2 ± 2.1% and a cell viability (H460) of 45.5 ± 4%. For the same sequence, the cell viability (3LL) was 9.98 ± 3.3%.
In the case of UAACUUGACAUGUAAACCAAA, the cell viability (M565) is reported as 80.8 ± 5.5%, the cell viability (HeyA8) is reported as 90.1 ± 17% and the cell viability (H460) is reported as 62.2 ± 3.8%. The cell viability (3LL) was 81.9 ± 7%.
With UAGGCCUACAUGUAAACCAAA the cell viability (M565) was 5.72 ± 1.4%, the cell viability (HeyA8) was 29.7 ± 2.2% and the cell viability (H460) was 56.8 ± 7.3%. For the same sequence, the cell viability (3LL) was 34.9 ± 6.8%.
With UCGUCUUACAUGUAAACCAAA the cell viability (M565) was 49.8 ± 8.5%, the cell viability (HeyA8) was 65.4 ± 2.2% and the cell viability (H460) was 75.7 ± 9.1%. The cell viability (3LL) was 85.9 ± 16%.
In the case of UCGCACCACAUGUAAACCAAA, the cell viability (M565) is reported as 35.6 ± 5%, the cell viability (HeyA8) is reported as 57.2 ± 1.1% and the cell viability (H460) is reported as 43.3 ± 1.1%. It also gave a cell viability (3LL) of 63.1 ± 6.7%.
In the case of UUGUUUCACAUGUAAACCAAA, the cell viability (M565) is reported as 95.8 ± 13%, the cell viability (HeyA8) is reported as 73.3 ± 7% and the cell viability (H460) is reported as 64.1 ± 8.2%. The cell viability (3LL) was 89.2 ± 7%.
In the case of UAUUAGCACAUGUAAACCAAA, the cell viability (M565) is reported as 60.2 ± 9%, the cell viability (HeyA8) is reported as 64.8 ± 4.7% and the cell viability (H460) is reported as 64.6 ± 12%. The cell viability (3LL) was 28.2 ± 8.9%.
UCUCGUCACAUGUAAACCAAA gave a cell viability (M565) of 40.8 ± 15%, a cell viability (HeyA8) of 37.8 ± 4.7% and a cell viability (H460) of 58.7 ± 11%. It also gave a cell viability (3LL) of 83.2 ± 8.4%.
With UAAAGGUACAUGUAAACCAAA the cell viability (M565) was 38.7 ± 12%, the cell viability (HeyA8) was 64.7 ± 9.3% and the cell viability (H460) was 60.9 ± 2.8%. The cell viability (3LL) was 79.6 ± 1.7%.
UCACCCCACAUGUAAACCAAA was tested, and the cell viability (M565) was 44.9 ± 6.8%, the cell viability (HeyA8) was 26.9 ± 1.2% and the cell viability (H460) was 20.6 ± 1.6%. The cell viability (3LL) was 15.3 ± 3.3%.
Work on UGCCCCUACAUGUAAACCAAA yielded a cell viability (M565) of 17.6 ± 3.6%, a cell viability (HeyA8) of 72.7 ± 6% and a cell viability (H460) of 72.5 ± 5.5%. The cell viability (3LL) was 18.1 ± 4.6%.
UCAUUAUACAUGUAAACCAAA was tested, and the cell viability (M565) was 56.9 ± 8.6%, the cell viability (HeyA8) was 71.5 ± 4.8% and the cell viability (H460) was 54.4 ± 3.4%. It also gave a cell viability (3LL) of 94.7 ± 10%.
With UGGAGUGACAUGUAAACCAAA the cell viability (M565) was 57.7 ± 4.2%, the cell viability (HeyA8) was 17.4 ± 5.3% and the cell viability (H460) was 55.5 ± 1.4%. It also gave a cell viability (3LL) of 87.3 ± 19%.
For UACGUGAACAUGUAAACCAAA, the cell viability (M565) was 63.4 ± 11%, the cell viability (HeyA8) was 80.3 ± 12% and the cell viability (H460) was 76.9 ± 3.8%. It also gave a cell viability (3LL) of 87.8 ± 8.6%.
In the case of UCGGAGUACAUGUAAACCAAA, the cell viability (M565) is reported as 36.2 ± 4.3%, the cell viability (HeyA8) is reported as 43.2 ± 3.8% and the cell viability (H460) is reported as 44.6 ± 8%. For the same sequence, the cell viability (3LL) was 75.8 ± 18%.
In the case of UGUUGACACAUGUAAACCAAA, the cell viability (M565) is reported as 14 ± 1.3%, the cell viability (HeyA8) is reported as 21.9 ± 5.5% and the cell viability (H460) is reported as 33.2 ± 7.3%. It also gave a cell viability (3LL) of 66.1 ± 14%.
For UGUCGCUACAUGUAAACCAAA, the cell viability (M565) was 25 ± 2.3%, the cell viability (HeyA8) was 32.2 ± 2.5% and the cell viability (H460) was 31 ± 6.4%. For the same sequence, the cell viability (3LL) was 37.54 ± 0.19%.
Sequence UCGUACGACAUGUAAACCAAA has a cell viability (M565) of 94.1 ± 13%, a cell viability (HeyA8) of 79 ± 5.2% and a cell viability (H460) of 95.7 ± 13%. For the same sequence, the cell viability (3LL) was 86.3 ± 18%.
Work on UCUAGUAACAUGUAAACCAAA yielded a cell viability (M565) of 66.1 ± 9.2%, a cell viability (HeyA8) of 84.8 ± 8.3% and a cell viability (H460) of 57.8 ± 2%. It also gave a cell viability (3LL) of 94.2 ± 15%.
With UCGUUCAACAUGUAAACCAAA the cell viability (M565) was 32 ± 4.5%, the cell viability (HeyA8) was 61.1 ± 5.5% and the cell viability (H460) was 69.8 ± 11%. The cell viability (3LL) was 95.1 ± 12%.
Sequence UGAAUAAACAUGUAAACCAAA has a cell viability (M565) of 67.2 ± 15%, a cell viability (HeyA8) of 96 ± 2.5% and a cell viability (H460) of 89.7 ± 16%. For the same sequence, the cell viability (3LL) was 110 ± 19%.
With UCAAUACACAUGUAAACCAAA the cell viability (M565) was 46.7 ± 9.7%, the cell viability (HeyA8) was 62.9 ± 6.2% and the cell viability (H460) was 57.2 ± 7.8%. The cell viability (3LL) was 88.7 ± 19%.
UAUAAGUACAUGUAAACCAAA was tested, and the cell viability (M565) was 48.8 ± 14%, the cell viability (HeyA8) was 91.6 ± 9.8% and the cell viability (H460) was 76.8 ± 13%. The cell viability (3LL) was 62.4 ± 16%.
Work on UGUGGUGACAUGUAAACCAAA yielded a cell viability (M565) of 35.2 ± 3.1%, a cell viability (HeyA8) of 23.6 ± 2.1% and a cell viability (H460) of 16.7 ± 1.3%. It also gave a cell viability (3LL) of 8.09 ± 3.1%.
With UAGCUAGACAUGUAAACCAAA the cell viability (M565) was 40.2 ± 5.8%, the cell viability (HeyA8) was 30 ± 4.1% and the cell viability (H460) was 67.8 ± 3.7%. For the same sequence, the cell viability (3LL) was 63.3 ± 7.8%.
UGCCACAACAUGUAAACCAAA was tested, and the cell viability (M565) was 50.3 ± 8.3%, the cell viability (HeyA8) was 47.9 ± 3.6% and the cell viability (H460) was 36 ± 9.7%. The cell viability (3LL) was 75.9 ± 12%.
UUACUUCACAUGUAAACCAAA was tested, and the cell viability (M565) was 50.3 ± 3.3%, the cell viability (HeyA8) was 63.5 ± 5.6% and the cell viability (H460) was 55.7 ± 5.6%. For the same sequence, the cell viability (3LL) was 29.4 ± 3%.
Sequence UUUCCAAACAUGUAAACCAAA has a cell viability (M565) of 85.3 ± 13%, a cell viability (HeyA8) of 106 ± 3.2% and a cell viability (H460) of 76.2 ± 8.5%. It also gave a cell viability (3LL) of 97.8 ± 3%.
Work on UACACGGACAUGUAAACCAAA yielded a cell viability (M565) of 53.5 ± 7.3%, a cell viability (HeyA8) of 75.5 ± 1.2% and a cell viability (H460) of 63.8 ± 5.1%. It also gave a cell viability (3LL) of 73 ± 3.5%.
For UUAGUGCACAUGUAAACCAAA, the cell viability (M565) was 130 ± 6.5%, the cell viability (HeyA8) was 73.3 ± 1.9% and the cell viability (H460) was 79.5 ± 9.2%. It also gave a cell viability (3LL) of 54.8 ± 3.1%.
